The chains are these.
B1: LINE1-full (parent)
chain: UACGUAGGUGGUUUUCCCCUGAUAGUGCUAAGGGGGCCUGGAAGUUUGGACUGGGCAGAGCUCAACACAGCGUGGCAAAGUGGCUGUGGCUAGACUGCCUCUCUGGAUUCCUCGUCACUCAGCAGGGCAUCUCUGAGAGAAAUGCC

Read counts are not given, so values of variants with three or more changes are uncertain.

In the data set the parent is B1. The experiment in a line: self-cleavage, relative activity (ratio to wild type); higher = more cleavage; in vitro, sequencing; the parent is a self-cleaving ribozyme.
Take A77U A78U C98A A138G: the self-cleavage amounted to 0.27.
Under A67G C84U U108C U119C U134A stands 0.
As for C76U U109C A121G, the figure is 1.59; as for A67G U112C A136G, 0; as for U73C A78G U85A A107G A138U, 0.
Under A69G C76U U102C stands 0.76.
In the case of C71U C120U A136G, the self-cleavage came to 1.14.
As for A69C U130A U132A, the figure is 0.14.
As for A69G U100C A141G, the figure is 0.29; as for U73C A141G U143C, 2.76.
As for A69C G93A A124G, the figure is 0.02; as for U73A U104A A136U, 1.81; as for G75A A78G A107G U119C, 0.49.
As to G70A G106A U132C, the self-cleavage is 0.17.
As for U73C U81C U112A, the self-cleavage turned out to be 2.18.
In the case of U73G U91C A142C, the self-cleavage stood at 0.72.
Consider A69G A117C U134C, for which the self-cleavage came to 1.29.
As for A69U C76U A79G U104A, the figure is 0.03.
For A77U A121G U130A U132A, the self-cleavage was determined as 1.32.
For A69G U81G A107G, the self-cleavage came out at 0.44.
Under A67G A77G U87A U134C stands 0.19; under A78G A107G G114A, 0.29.
As for G75A U96A A124G, the figure is 0.11; as for U73C G126U U132C, 1.26; as for U73A U115A A136G, 1.55.
As for G75A U119C A136G A141G, the figure is 1.05; as for U73A A107G U143C, 1.75; as for A69U A77U U91C, 0.04.
As to U73A U100A U115C A142G, the self-cleavage was 0.85.
Under U73A U91C A107G U119C stands 0.
Under A67G C99A A142G stands 0.
Under U73A C120U U130C stands 2.16; under U73C U81C U132C U143A, 2.3; under U73A G75C U130A A142G, 0.73.
With A77G A92U U104C, the self-cleavage was 0.94.
On to C71G A94G A117G, for which the self-cleavage was determined as 0.
Turning to C76U U96C U119C U134A, the self-cleavage came to 0.13.
As for A77U U104C U130A, the figure is 1.81; as for G75A A129U U134A U143C, 1.12; as for G70A U81A A92U U115C A117U, 0.12.
As for G74A U109C U134A A140G, the figure is 0.15.
On to C71U G88A A92G, for which the self-cleavage is 0.05.
For the variant A69G U102C U130C, the self-cleavage was found to be 0.
With A77G U112A G135A, the self-cleavage was 2.18.
As to A69G A77U U104C C131U, the self-cleavage amounted to 0.
Under A67U U100C U102C A121G stands 0.
Under A77G U102C G114U stands 2.84.
As to A69U U100C U134C, the self-cleavage came out at 0.14.
As to U73A C103A A141G, the self-cleavage came to 1.8.
Consider C71U U109A C113U A141G A142G, for which the self-cleavage came out at 0.76.
For A67G A79G U104A, the self-cleavage was found to be 0.
On to C68U U73G U100G U109C A136G A142G, for which the self-cleavage amounted to 0.
As for A77G U96A U104C A138U, the figure is 0.05; as for A69G U119A U132A A136U, 1.79.
As for G75A A138G U143A, the figure is 1.47; as for A77C C128U A141G, 0.48.
On to U73A A124U A142G, for which the self-cleavage was 1.48.
For the variant A69U A121G A129G, the self-cleavage was 0.
Under A78G A94G C120U stands 0.23; under C68U U96C C146U, 0.04.
For the variant A77G A129U U134A U143C, the self-cleavage was determined as 2.28.
Under A67G U85A A94U A141G stands 0.17; under A67G A124U G126A A138G, 0.57.
As for A69G A117G U143G, the self-cleavage is 0.
Under U73G A129G U143G stands 2.43; under U73C C111A U130C, 1.43.
Under C76A A79G A94U stands 0.26.
A67U U109A A141G: the self-cleavage turned out to be 0.11.
For A77G U81C U100C, the self-cleavage is 0.84.
As for A67G U143A G144A, the figure is 0.79; as for C68U A107G U119A, 0.05.
For A77G U85C U132C, the self-cleavage worked out at 0.
Take A77U U81C U109C: the self-cleavage stood at 2.3.
As for A77G A94G U104A, the figure is 0.35; as for G72U A78G U87C, 0.31.
Under C76U U85A U119C stands 0.23; under A77G U109C U143C, 1.55.
Take U73A A78G U85A C131U: the self-cleavage came out at 0.03.
As for C71U U112C U143G, the figure is 0.95.
For G72A U130C U134C, the self-cleavage was 2.4.
Take C71A U96C U119C A121G: the self-cleavage turned out to be 0.03.
A77U G127A A138U: the self-cleavage was 1.14.
As for U73C A121G G126A A142G, the figure is 1.45.
With U73C U119C A121U, the self-cleavage came to 1.34.
Under A77U U96C A107U G127A stands 0.07.
As for A67U C103U U112C, the figure is 0.06; as for A78G A107G A129G, 1.51.
In the case of A67G U100A A129U A141G, the self-cleavage is 0.23.
As for C68U U132C A136G, the figure is 0.48.
Turning to A77U A94G U130C, the self-cleavage was determined as 0.07.
As for A78G A129U U132C A136G, the figure is 1.27; as for A69G A136G A140G, 0.92; as for U73A U87A U108A A129G, 0.07.
Turning to A67U A94G A141G, the self-cleavage was determined as 0.42.
Under C68U A121G U143A stands 0.2.
Take A67G A124G U132C: the self-cleavage stood at 0.23.
As for A69G C113U A129G, the figure is 0.33.
As for U73A U96A A107G A117G U134C, the self-cleavage came out at 0.
As for A69G A79G U130C, the figure is 2.3; as for A69U U85C C113A A140G, 0.03; as for A67G U85C U96A, 0.14.
With C76U U87A A124U G127U, the self-cleavage is 0.08.
For the variant A77U U102A A121G, the self-cleavage is 1.7.
Under A77G A78G A136G stands 2.76; under A69U U100C U130C, 0; under U73G U119A U130A, 1.89.
As for G74A G106C U143C, the figure is 1.15.
As for A69G G125U U134C, the figure is 0.55; as for A67U U108C C116U, 0.2; as for U73A U109C A121G, 1.88.
For C76G U104C A124G, the self-cleavage came to 0.56.
As for A77U A94G U96A G125U U130C, the figure is 0; as for A67U U91C A138U, 0.02.
Under U73A A78G A138U A141G stands 0.45.
Under C71U A94U U109C stands 0.06; under A77G U108C U112C, 0.
As for A67C U96C A141G, the self-cleavage is 0.
As for A69G C101A U108C G114A U134A, the figure is 0.23; as for U73C U100G U115A, 1.08.
As for C76U A79G A138G, the figure is 2.06.
Under U73C A129G U134A stands 0.66.
Consider G72A U73A A124G, for which the self-cleavage was 1.04.
With A69G A94U U108C, the self-cleavage was determined as 0.
As for G75A G88A A124G G139A, the figure is 0.05; as for U73C U96C A117G, 0; as for A77G A79U U112C, 2.06.
Turning to A69U C116A A142G, the self-cleavage was found to be 0.02.
As for A69U U112C G125U, the figure is 0.05.
As to U73A U87C U102C U132C A141G U143C, the self-cleavage is 0.
A78G C90G A117G: the self-cleavage was 0.18.
Regarding A77G C84U G127U, the self-cleavage turned out to be 0.2.
As for A69U A78G A107G C128U, the figure is 0.05.
Under A67G A77G G89U stands 0.05; under A69U A77U A121G A129G, 0.08.
As for U73C U109A A129G, the self-cleavage turned out to be 1.53.
Take A69U A136G A140G: the self-cleavage came out at 0.05.
Take G72A U134A A141G: the self-cleavage turned out to be 1.66.
Under A77G U81A A124U stands 1.11; under C71A G86U G106U A121G, 0.03; under A67G U87A U132G A141G, 0.19.
As for G72U G88U U108C U132A U143A, the figure is 0.01; as for A77G U112C G127A A129G, 2.56.
Turning to C76U U85C A141G, the self-cleavage is 0.27.
Under A69G U132A A140G stands 1.28.
Under G74A U104A U143C stands 1.07; under A69U G83A U108C, 0.01.
Regarding A77G U115G U119C, the self-cleavage worked out at 1.31.
With C71U A79U A129G A142G, the self-cleavage was determined as 0.73.
Under U73G A79G U96G stands 0; under A69G A94G A124G A138G, 0.
As for U73A U85C A129G A142G, the figure is 0.15; as for G72A A77G G137A, 1.8; as for U73C U85A C131U U134C A140U, 0.13.
Regarding A77G U100A U134C, the self-cleavage worked out at 1.48.
As for A69U G74A A136U G139U U143A, the self-cleavage was determined as 0.06.
Under U73C G89A U96C stands 0.08; under A67U U108C A138U A142G, 0.35; under G75A A77G U112A, 1.01.
Under A77G U102C U112C A140G stands 2.63; under U73C U119G A140G, 2.63; under A69U G75A C128U, 0.09.
As for U73C A77G G89U U100A, the figure is 0.03; as for G75A G114C U119C, 1.08; as for A78G A79G U87C G88A U112C U132C A136U, 0.
As to A78G C90A A140G, the self-cleavage was found to be 0.
As for C76A G114U A142G, the figure is 1.64.
A67G U96C C123U: the self-cleavage amounted to 0.

These data come from the RNAGym collection of RNA variant scans (doi:10.7554/elife.90254).
